# The other results are listed elsewhere or left out. Single values are uncertain, as repeats are few or missing.
# System: LOXIMVI
# Assay: cell count relative to DMSO control; melanoma cells; higher = more viable cells
# Conditions: library dose: low library concentration; 72 h
# 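Also: cell number obtained by counting DAPI-stained nuclei in high-throughput microscope images with image analysis software, screen run in 1,536-well plates.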
row,SMILES,cell count
1,"O=C(O)c1ccc(-c2c[nH]c3ncc(-c4ccccc4)cc23)cc1C1CCCC1 + Oc1cc(-c2nc(-c3ccccc3)[nH]c2-c2ccncc2)ccc1Cl [L779450] (first compound 0.16 µM, partner dose 0.2 µM)",93.4%
2,"COc1cc(Nc2ncc(F)c(Nc3ccc4c(n3)NC(=O)C(C)(C)O4)n2)cc(OC)c1OC [Tamatinib] + COc1ccc2c(c1)CCC1C2CCC2(C)C(NCCCCCCN3C(=O)C=CC3=O)CCC12 [U73122] (first compound 0.4 µM, partner dose 0.4 µM)",88.9%
3,"C[C@@H]1CCN(C(=O)CC#N)C[C@@H]1N(C)c1ncnc2[nH]ccc12 + O=S(=O)(c1ccccc1)N(CC(F)(F)F)c1ccc(C(O)(C(F)(F)F)C(F)(F)F)cc1 [T0901317] (first compound 1 µM, partner dose 1.4 µM)",96.8%
4,"O=c1[nH]nc(Sc2ncc([N+](=O)[O-])s2)n1-c1ccc2c(c1)OCCO2 + COc1ccc(C2=N[C@@H](c3ccc(Cl)cc3)[C@@H](c3ccc(Cl)cc3)N2C(=O)N2CCNC(=O)C2)c(OC(C)C)c1 [Nutlin-3] (first compound 0.2 µM, partner dose 0.1 µM)",135%
5,"CC1(C)NC(=O)N(c2ccc([N+](=O)[O-])c(C(F)(F)F)c2)C1=O [nilutamide] + COc1cc(N2CCC(N3CCN(C)CC3)CC2)ccc1Nc1ncc(Cl)c(Nc2ccccc2S(=O)(=O)C(C)C)n1 [NVP-TAE684] (first compound 1 µM, partner dose 0.08 µM)",87.4%

# System: MEL-HO
# Assay: as above
# Conditions: library dose: low library concentration; 72 h
row,SMILES,cell count
1,"COc1cc(Nc2ncc(F)c(Nc3ccc4c(n3)NC(=O)C(C)(C)O4)n2)cc(OC)c1OC [Tamatinib] + COC(=O)c1sccc1S(=O)(=O)Nc1ccc(Nc2ccccc2)cc1OC [GSK0660] (first compound 0.4 µM, partner dose 1 µM)",99.3%
2,"O=C(O)c1ccc(-c2c[nH]c3ncc(-c4ccccc4)cc23)cc1C1CCCC1 + O=C(O)C(=O)Nc1sc2c(c1C(=O)O)CCNC2 [TCS401] (first compound 0.16 µM, partner dose 1.66667 µM)",94.8%
3,"C[C@@H]1CCN(C(=O)CC#N)C[C@@H]1N(C)c1ncnc2[nH]ccc12 + N#Cc1c(O)c2c(-c3ccc(-c4ccccc4O)cc3)csc2[nH]c1=O [A769662] (first compound 1 µM, partner dose 2 µM)",85.2%
4,"C[C@@H]1CCN(C(=O)CC#N)C[C@@H]1N(C)c1ncnc2[nH]ccc12 + CC(C)CCN1c2nc(Nc3cc(F)c(O)c(F)c3)ncc2N(C)C(=O)C1C [BID1870] (first compound 1 µM, partner dose 0.2 µM)",104%
5,"C[C@@H]1CCN(C(=O)CC#N)C[C@@H]1N(C)c1ncnc2[nH]ccc12 + O=c1cc(-c2cccc3c2Sc2ccccc2S3)oc(N2CCOCC2)c1 [KU55933] (first compound 1 µM, partner dose 1 µM)",91%
6,"O=C(O)c1ccc(-c2c[nH]c3ncc(-c4ccccc4)cc23)cc1C1CCCC1 + O=C1NC(=O)/C(=C/c2ccc(-c3ccc(F)cc3O)o2)S1 [AS252424] (first compound 0.16 µM, partner dose 1 µM)",75.6%
7,"O=C(O)c1ccc(-c2c[nH]c3ncc(-c4ccccc4)cc23)cc1C1CCCC1 + CCN(CC)CCCCNc1ncc2cc(-c3cc(OC)cc(OC)c3)c(NC(=O)NC(C)(C)C)nc2n1 [PD173074] (first compound 0.16 µM, partner dose 0.1 µM)",110%
8,"O=c1[nH]nc(Sc2ncc([N+](=O)[O-])s2)n1-c1ccc2c(c1)OCCO2 + CN1CCN(c2ccc3nc(-c4c(N)c5c(F)cccc5[nH]c4=O)[nH]c3c2)CC1 [Dovitinib] (first compound 0.2 µM, partner dose 0.1 µM)",96.2%
9,"COc1cc(Nc2ncc(F)c(Nc3ccc4c(n3)NC(=O)C(C)(C)O4)n2)cc(OC)c1OC [Tamatinib] + COc1ccc(-c2ccc3c(N4CCOCC4)nc(N4C[C@@H](C)O[C@@H](C)C4)nc3n2)cc1CO [KU0063794] (first compound 0.4 µM, partner dose 0.02 µM)",74.7%
10,"O=c1[nH]nc(Sc2ncc([N+](=O)[O-])s2)n1-c1ccc2c(c1)OCCO2 + CCCS(=O)(=O)Nc1ccc(F)c(C(=O)c2c[nH]c3ncc(Cl)cc23)c1F [PLX4720] (first compound 0.2 µM, partner dose 0.08 µM)",87.7%
